# From the supplement of paper PMC8728848
# The other results are listed elsewhere or left out.
# What was measured:
# Assay in all cases: glycan array binding signal (z-score within array); higher = stronger binding
# Conditions in all cases: glycan notation: IUPAC condensed, linker removed
# [1] = molecular target: Gal3S(b1-3)[Fuc(a1-4)]GlcNAc
# Procedure, shortened: (§1)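 The binding signal is a Z-score computed within each array. Data were drawn from 3228 arrays in the Consortium for Functional Glycomics database, restricted to those with a known protein sequence. Scores were averaged over arrays of the same protein sequence at different concentrations or buffers, and over linkers, and negative values can be taken as non-binding.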
# Gal3S(b1-4)Glc = molecular target: Gal3S(b1-4)Glc
# Procedure, shortened: as §1
# Gal3S(b1-4)Glc6S = molecular target: Gal3S(b1-4)Glc6S
# Procedure, shortened: as §1
# Gal3S(b1-4)GlcNAc = molecular target: Gal3S(b1-4)GlcNAc
# Procedure, shortened: as §1
# Gal3S(b1-4)GlcNAc6S = molecular target: Gal3S(b1-4)GlcNAc6S
# Procedure, shortened: as §1
# [2] = molecular target: Gal3S(b1-4)[Fuc(a1-3)]Glc
# Procedure, shortened: as §1
# [3] = molecular target: Gal3S(b1-4)[Fuc(a1-3)]Glc6S
# Procedure, shortened: as §1
# Gal3S4S(b1-4)GlcNAc = molecular target: Gal3S4S(b1-4)GlcNAc
# Procedure, shortened: as §1
# Gal3S6S(b1-4)GlcNAc = molecular target: Gal3S6S(b1-4)GlcNAc
# Procedure, shortened: as §1
# Gal3S6S(b1-4)GlcNAc6S = molecular target: Gal3S6S(b1-4)GlcNAc6S
# Procedure, shortened: as §1
# Gal4S(b1-4)GlcNAc = molecular target: Gal4S(b1-4)GlcNAc
# Procedure, shortened: as §1
# Gal4S6S(b1-4)GlcNAc = molecular target: Gal4S6S(b1-4)GlcNAc
# Procedure, shortened: as §1
# Gal6S(b1-3)GlcNAc = molecular target: Gal6S(b1-3)GlcNAc
# Procedure, shortened: as §1
# Gal6S(b1-3)GlcNAc6S = molecular target: Gal6S(b1-3)GlcNAc6S
# Procedure, shortened: as §1
# Gal6S(b1-4)Glc = molecular target: Gal6S(b1-4)Glc
# Procedure, shortened: as §1
# Gal6S(b1-4)Glc6S = molecular target: Gal6S(b1-4)Glc6S
# Procedure, shortened: as §1
# Gal6S(b1-4)GlcNAc = molecular target: Gal6S(b1-4)GlcNAc
# Procedure, shortened: as §1
# Gal6S(b1-4)GlcNAc6S = molecular target: Gal6S(b1-4)GlcNAc6S
# Procedure, shortened: as §1
# GalNAc(a1-3)Gal = molecular target: GalNAc(a1-3)Gal
# Procedure, shortened: as §1
# GalNAc(a1-3)GalNAc = molecular target: GalNAc(a1-3)GalNAc
# Procedure, shortened: as §1
# [4] = molecular target: GalNAc(a1-3)GalNAc(b1-3)Gal(a1-4)Gal(b1-4)Glc
# Procedure, shortened: as §1
# [5] = molecular target: GalNAc(a1-3)GalNAc(b1-3)Gal(a1-4)Gal(b1-4)GlcNAc
# Procedure, shortened: as §1
# GalNAc(b1-3)Gal = molecular target: GalNAc(b1-3)Gal
# Procedure, shortened: as §1
# [6] = molecular target: GalNAc(b1-3)Gal(a1-4)Gal(b1-4)GlcNAc
# Procedure, shortened: as §1
# [7] = molecular target: GalNAc(b1-3)Gal(a1-4)Gal(b1-4)GlcNAc(b1-3)Gal(b1-4)Glc
# Procedure, shortened: as §1
# [8] = molecular target: GalNAc(b1-3)Gal(a1-6)Gal(b1-4)Glc
# Procedure, shortened: as §1
# GalNAc(b1-3)GalNAc = molecular target: GalNAc(b1-3)GalNAc
# Procedure, shortened: as §1
# GalNAc(b1-4)Gal(b1-4)Glc = molecular target: GalNAc(b1-4)Gal(b1-4)Glc
# Procedure, shortened: as §1
# GalNAc(b1-4)GlcNAc = molecular target: GalNAc(b1-4)GlcNAc
# Procedure, shortened: as §1
# [9] = molecular target: GalNAc(b1-4)GlcNAc(b1-2)Man(a1-3)[GalNAc(b1-4)GlcNAc(b1-2)Man(a1-6)]Man(b1-4)GlcNAc(b1-4)GlcNAc
# Procedure, shortened: as §1
# GalNAc(b1-6)GalNAc = molecular target: GalNAc(b1-6)GalNAc
# Procedure, shortened: as §1
# Glc(a1-4)Glc = molecular target: Glc(a1-4)Glc
# Procedure, shortened: as §1
# [10] = molecular target: Glc(a1-4)Glc(a1-4)Glc(a1-4)Glc
# Procedure, shortened: as §1
# Glc(a1-6)Glc(a1-6)Glc = molecular target: Glc(a1-6)Glc(a1-6)Glc
# Procedure, shortened: as §1
# [11] = molecular target: Glc(a1-6)Glc(a1-6)Glc(a1-6)Glc
# Procedure, shortened: as §1
# Glc(b1-4)Glc = molecular target: Glc(b1-4)Glc
# Procedure, shortened: as §1
# Glc(b1-6)Glc = molecular target: Glc(b1-6)Glc
# Procedure, shortened: as §1
# GlcA(b1-3)Gal = molecular target: GlcA(b1-3)Gal
# Procedure, shortened: as §1
# GlcA(b1-3)GlcNAc = molecular target: GlcA(b1-3)GlcNAc
# Procedure, shortened: as §1
# GlcA(b1-6)Gal = molecular target: GlcA(b1-6)Gal
# Procedure, shortened: as §1
# [12] = molecular target: GlcNAc(a1-3)Gal(b1-4)GlcNAc
# Procedure, shortened: as §1
# [13] = molecular target: GlcNAc(a1-4)Gal(b1-3)GlcNAc
# Procedure, shortened: as §1
# [14] = molecular target: GlcNAc(a1-4)Gal(b1-4)GalNAc
# Procedure, shortened: as §1
# [15] = molecular target: GlcNAc(a1-4)Gal(b1-4)GlcNAc
# Procedure, shortened: as §1
# [16] = molecular target: GlcNAc(a1-4)Gal(b1-4)GlcNAc(b1-3)Gal(b1-4)Glc
# Procedure, shortened: as §1
binder,measurement,setting,value
"CVN (Nostoc ellipsosporum), P81180 (protein) LGKFSQTCYNSAIQGSVLTSTCERTNGGYNTSSIDLNSVIENVDGSLKWQPSNFIETCRNTQLAGSSELAAECKTRAQQFVSTKINLDDHIANIDGTLKYE",glycan array binding signal (z-score),[1],-0.303
same,glycan array binding signal (z-score),Gal3S(b1-4)Glc,-0.296
same,glycan array binding signal (z-score),Gal3S(b1-4)Glc6S,-0.305
same,glycan array binding signal (z-score),Gal3S(b1-4)GlcNAc,-0.3
same,glycan array binding signal (z-score),Gal3S(b1-4)GlcNAc6S,-0.302
same,glycan array binding signal (z-score),[2],-0.297
same,glycan array binding signal (z-score),[3],-0.17
same,glycan array binding signal (z-score),Gal3S4S(b1-4)GlcNAc,-0.305
same,glycan array binding signal (z-score),Gal3S6S(b1-4)GlcNAc,-0.305
same,glycan array binding signal (z-score),Gal3S6S(b1-4)GlcNAc6S,-0.305
same,glycan array binding signal (z-score),Gal4S(b1-4)GlcNAc,-0.305
same,glycan array binding signal (z-score),Gal4S6S(b1-4)GlcNAc,-0.3
same,glycan array binding signal (z-score),Gal6S(b1-3)GlcNAc,-0.304
same,glycan array binding signal (z-score),Gal6S(b1-3)GlcNAc6S,-0.299
same,glycan array binding signal (z-score),Gal6S(b1-4)Glc,-0.299
same,glycan array binding signal (z-score),Gal6S(b1-4)Glc6S,-0.301
same,glycan array binding signal (z-score),Gal6S(b1-4)GlcNAc,-0.306
same,glycan array binding signal (z-score),Gal6S(b1-4)GlcNAc6S,-0.302
same,glycan array binding signal (z-score),GalNAc(a1-3)Gal,-0.308
same,glycan array binding signal (z-score),GalNAc(a1-3)GalNAc,-0.308
same,glycan array binding signal (z-score),[4],-0.296
same,glycan array binding signal (z-score),[5],-0.281
same,glycan array binding signal (z-score),GalNAc(b1-3)Gal,-0.304
same,glycan array binding signal (z-score),[6],-0.294
same,glycan array binding signal (z-score),[7],-0.303
same,glycan array binding signal (z-score),[8],-0.305
same,glycan array binding signal (z-score),GalNAc(b1-3)GalNAc,-0.306
same,glycan array binding signal (z-score),GalNAc(b1-4)Gal(b1-4)Glc,-0.305
same,glycan array binding signal (z-score),GalNAc(b1-4)GlcNAc,-0.303
same,glycan array binding signal (z-score),[9],-0.25
same,glycan array binding signal (z-score),GalNAc(b1-6)GalNAc,-0.305
same,glycan array binding signal (z-score),Glc(a1-4)Glc,-0.263
same,glycan array binding signal (z-score),[10],-0.307
same,glycan array binding signal (z-score),Glc(a1-6)Glc(a1-6)Glc,-0.307
same,glycan array binding signal (z-score),[11],-0.3
same,glycan array binding signal (z-score),Glc(b1-4)Glc,-0.305
same,glycan array binding signal (z-score),Glc(b1-6)Glc,-0.302
same,glycan array binding signal (z-score),GlcA(b1-3)Gal,-0.307
same,glycan array binding signal (z-score),GlcA(b1-3)GlcNAc,-0.306
same,glycan array binding signal (z-score),GlcA(b1-6)Gal,-0.306
same,glycan array binding signal (z-score),[12],-0.305
same,glycan array binding signal (z-score),[13],-0.021
same,glycan array binding signal (z-score),[14],-0.165
same,glycan array binding signal (z-score),[15],-0.211
same,glycan array binding signal (z-score),[16],-0.308
